# Assay results reported in the supplement of paper PMC8728848.
# This is one part of the list.
# How the values were obtained:
# Assay in all cases: glycan array binding signal (z-score within array); higher = stronger binding
# Conditions in all cases: glycan notation: IUPAC condensed, linker removed
# Gal6S(b1-4)Glc = target: Gal6S(b1-4)Glc
# Summary of the method: (§1)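 The binding signal is a Z-score computed within each array. Data were drawn from 3228 arrays in the Consortium for Functional Glycomics database, restricted to those with a known protein sequence. Scores were averaged over arrays of the same protein sequence at different concentrations or buffers, and over linkers, and negative values can be taken as non-binding.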
# Gal6S(b1-4)Glc6S = target: Gal6S(b1-4)Glc6S
# Summary of the method: as §1
# Gal6S(b1-4)GlcNAc = target: Gal6S(b1-4)GlcNAc
# Summary of the method: as §1
# GalNAc(a1-3)Gal = target: GalNAc(a1-3)Gal
# Summary of the method: as §1
# GalNAc(a1-3)GalNAc = target: GalNAc(a1-3)GalNAc
# Summary of the method: as §1
# [1] = target: GalNAc(b1-3)Gal(a1-4)Gal(b1-4)GlcNAc
# Summary of the method: as §1
# GalNAc(b1-4)GlcNAc = target: GalNAc(b1-4)GlcNAc
# Summary of the method: as §1
# Glc(a1-4)Glc = target: Glc(a1-4)Glc
# Summary of the method: as §1
# Glc(a1-6)Glc(a1-6)Glc = target: Glc(a1-6)Glc(a1-6)Glc
# Summary of the method: as §1
# Glc(b1-4)Glc = target: Glc(b1-4)Glc
# Summary of the method: as §1
# Glc(b1-6)Glc = target: Glc(b1-6)Glc
# Summary of the method: as §1
# GlcA(b1-3)Gal = target: GlcA(b1-3)Gal
# Summary of the method: as §1
# GlcA(b1-6)Gal = target: GlcA(b1-6)Gal
# Summary of the method: as §1
# [2] = target: GlcNAc(a1-3)Gal(b1-4)GlcNAc
# Summary of the method: as §1
# [3] = target: GlcNAc(a1-6)Gal(b1-4)GlcNAc
# Summary of the method: as §1
# [4] = target: GlcNAc(b1-2)Gal(b1-3)GlcNAc
# Summary of the method: as §1
# [5] = target: GlcNAc(b1-2)Man(a1-3)[GlcNAc(b1-2)Man(a1-6)]Man(b1-4)GlcNAc(b1-4)GlcNAc
# Summary of the method: as §1
# GlcNAc(b1-3)Gal = target: GlcNAc(b1-3)Gal
# Summary of the method: as §1
# [6] = target: GlcNAc(b1-3)Gal(b1-3)GalNAc
# Summary of the method: as §1
# GlcNAc(b1-3)Gal(b1-4)Glc = target: GlcNAc(b1-3)Gal(b1-4)Glc
# Summary of the method: as §1
# [7] = target: GlcNAc(b1-3)Gal(b1-4)GlcNAc
# Summary of the method: as §1
# [8] = target: GlcNAc(b1-3)Gal(b1-4)GlcNAc(b1-3)Gal(b1-4)GlcNAc
# Summary of the method: as §1
# GlcNAc(b1-3)GalNAc = target: GlcNAc(b1-3)GalNAc
# Summary of the method: as §1
# [9] = target: GlcNAc(b1-3)[GlcNAc(b1-4)][GlcNAc(b1-6)]GlcNAc
# Summary of the method: as §1
# [10] = target: GlcNAc(b1-3)[GlcNAc(b1-6)]Gal(b1-4)GlcNAc
# Summary of the method: as §1
# [11] = target: GlcNAc(b1-3)[GlcNAc(b1-6)]GlcNAc
# Summary of the method: as §1
# [12] = target: GlcNAc(b1-4)Gal(b1-4)GlcNAc
# Summary of the method: as §1
# [13] = target: GlcNAc(b1-4)GlcNAc(b1-4)GlcNAc
# Summary of the method: as §1
# [14] = target: GlcNAc(b1-4)GlcNAc(b1-4)GlcNAc(b1-4)GlcNAc(b1-4)GlcNAc
# Summary of the method: as §1
# [15] = target: GlcNAc(b1-4)GlcNAc(b1-4)GlcNAc(b1-4)GlcNAc(b1-4)GlcNAc(b1-4)GlcNAc
# Summary of the method: as §1
# [16] = target: GlcNAc(b1-4)[GlcNAc(b1-6)]GalNAc
# Summary of the method: as §1
# [17] = target: GlcNAc(b1-6)Gal(b1-4)GlcNAc
# Summary of the method: as §1
# GlcNAc(b1-6)GalNAc = target: GlcNAc(b1-6)GalNAc
# Summary of the method: as §1
# Kdn(a2-3)Gal(b1-3)GlcNAc = target: Kdn(a2-3)Gal(b1-3)GlcNAc
# Summary of the method: as §1
# Kdn(a2-3)Gal(b1-4)GlcNAc = target: Kdn(a2-3)Gal(b1-4)GlcNAc
# Summary of the method: as §1
# [18] = target: Man(a1-2)Man(a1-2)Man(a1-3)Man
# Summary of the method: as §1
# [19] = target: Man(a1-2)Man(a1-2)Man(a1-3)[Man(a1-2)Man(a1-3)[Man(a1-2)Man(a1-6)]Man(a1-6)]Man(b1-4)GlcNAc(b1-4)GlcNAc
# Summary of the method: as §1
# [20] = target: Man(a1-2)Man(a1-2)Man(a1-3)[Man(a1-2)Man(a1-6)[Man(a1-3)]Man(a1-6)]Man(b1-4)GlcNAc(b1-4)GlcNAc
# Summary of the method: as §1
# [21] = target: Man(a1-2)Man(a1-2)Man(a1-6)[Man(a1-3)]Man
# Summary of the method: as §1
# Man(a1-2)Man(a1-3)Man = target: Man(a1-2)Man(a1-3)Man
# Summary of the method: as §1
# [22] = target: Man(a1-2)Man(a1-3)[Man(a1-2)Man(a1-6)]Man
# Summary of the method: as §1
# [23] = target: Man(a1-2)Man(a1-3)[Man(a1-3)[Man(a1-6)]Man(a1-6)]Man(b1-4)GlcNAc(b1-4)GlcNAc
# Summary of the method: as §1
# [24] = target: Man(a1-2)Man(a1-3)[Man(a1-6)]Man(a1-6)[Man(a1-2)Man(a1-3)]Man(b1-4)GlcNAc(b1-4)GlcNAc
# Summary of the method: as §1
# Man(a1-3)[Man(a1-6)]Man = target: Man(a1-3)[Man(a1-6)]Man
# Summary of the method: as §1
# [25] = target: Man(a1-3)[Man(a1-6)]Man(a1-6)[Man(a1-3)]Man(b1-4)GlcNAc(b1-4)GlcNAc
# Summary of the method: as §1
# [26] = target: Man(a1-3)[Man(a1-6)]Man(b1-4)GlcNAc(b1-4)GlcNAc
# Summary of the method: as §1
# Man(b1-4)GlcNAc = target: Man(b1-4)GlcNAc
# Summary of the method: as §1
# Neu5Ac(a2-3)Gal = target: Neu5Ac(a2-3)Gal
# Summary of the method: as §1
# [27] = target: Neu5Ac(a2-3)Gal(b1-3)GalNAc
# Summary of the method: as §1
binder,measurement,setting,value
Tulipa lectin C-1 (Tulipa hybrid) (protein) MGMALVVALAVALASTVAGQQNVLLSGNTLANEESLSYGSVKFIMQNDCNLVLYGGGFQSNTASNGKKCTLTLNNNGHLIINDGLTGRVVWRNSNAQNPVGRYAAVLRPAPGTADVAIYGPAIWSTNDEFSYQESGVVPHKLGRETPNLPRMQNLLFSGQTLYGTDGMLSSNDGSTTFELSKCQLSLSLGNEVKWKVAPTVENGKENYCHVRLDHRGHLSLLNDDNVVLFRSIPTNGVEPPIGDYVLIVEKGAGYIYGPPIWNTYDNRRYKVASA,glycan array binding signal (z-score),Gal6S(b1-4)Glc,-0.189
same,glycan array binding signal (z-score),Gal6S(b1-4)Glc6S,0.244
same,glycan array binding signal (z-score),Gal6S(b1-4)GlcNAc,-0.12
same,glycan array binding signal (z-score),GalNAc(a1-3)Gal,-0.199
same,glycan array binding signal (z-score),GalNAc(a1-3)GalNAc,-0.164
same,glycan array binding signal (z-score),[1],-0.223
same,glycan array binding signal (z-score),GalNAc(b1-4)GlcNAc,-0.123
same,glycan array binding signal (z-score),Glc(a1-4)Glc,-0.205
same,glycan array binding signal (z-score),Glc(a1-6)Glc(a1-6)Glc,-0.187
same,glycan array binding signal (z-score),Glc(b1-4)Glc,-0.208
same,glycan array binding signal (z-score),Glc(b1-6)Glc,-0.219
same,glycan array binding signal (z-score),GlcA(b1-3)Gal,-0.191
same,glycan array binding signal (z-score),GlcA(b1-6)Gal,-0.196
same,glycan array binding signal (z-score),[2],-0.207
same,glycan array binding signal (z-score),[3],-0.237
same,glycan array binding signal (z-score),[4],-0.232
same,glycan array binding signal (z-score),[5],4.39
same,glycan array binding signal (z-score),GlcNAc(b1-3)Gal,-0.202
same,glycan array binding signal (z-score),[6],-0.133
same,glycan array binding signal (z-score),GlcNAc(b1-3)Gal(b1-4)Glc,-0.233
same,glycan array binding signal (z-score),[7],-0.23
same,glycan array binding signal (z-score),[8],-0.239
same,glycan array binding signal (z-score),GlcNAc(b1-3)GalNAc,-0.135
same,glycan array binding signal (z-score),[9],-0.208
same,glycan array binding signal (z-score),[10],-0.244
same,glycan array binding signal (z-score),[11],-0.218
same,glycan array binding signal (z-score),[12],-0.214
same,glycan array binding signal (z-score),[13],-0.216
same,glycan array binding signal (z-score),[14],-0.241
same,glycan array binding signal (z-score),[15],-0.214
same,glycan array binding signal (z-score),[16],-0.224
same,glycan array binding signal (z-score),[17],-0.235
same,glycan array binding signal (z-score),GlcNAc(b1-6)GalNAc,-0.229
same,glycan array binding signal (z-score),Kdn(a2-3)Gal(b1-3)GlcNAc,-0.208
same,glycan array binding signal (z-score),Kdn(a2-3)Gal(b1-4)GlcNAc,-0.227
same,glycan array binding signal (z-score),[18],-0.157
same,glycan array binding signal (z-score),[19],-0.114
same,glycan array binding signal (z-score),[20],-0.209
same,glycan array binding signal (z-score),[21],-0.223
same,glycan array binding signal (z-score),Man(a1-2)Man(a1-3)Man,-0.072
same,glycan array binding signal (z-score),[22],-0.116
same,glycan array binding signal (z-score),[23],-0.179
same,glycan array binding signal (z-score),[24],-0.224
same,glycan array binding signal (z-score),Man(a1-3)[Man(a1-6)]Man,-0.225
same,glycan array binding signal (z-score),[25],-0.2
same,glycan array binding signal (z-score),[26],4.98
same,glycan array binding signal (z-score),Man(b1-4)GlcNAc,-0.214
same,glycan array binding signal (z-score),Neu5Ac(a2-3)Gal,-0.192
same,glycan array binding signal (z-score),[27],-0.232
